Reference: publication PMC12607630
Where two headings read alike, the source gives them in different places. Not every entry of the source has a single result; some have several. This list holds those alone. There may be further records. For some of these results: Results that share an entry read as repeated measurements on other runs, samples or individuals; one of them may be the mean. Entries with a single value are a further part of the results.

Tests used:
[1] = target: 6×His-ZapC F30D (Escherichia coli) (UniProt P75862); assay: BLI; 6×His-ZapC or its mutants (0.5 µM) loaded on Ni-NTA biosensors, untagged FtsZ or its variants in solution; Octet-Red96, 30°C, 1× Pol buffer (50 mM HEPES-NaOH pH 6.8, 50 mM KCl, 10 mM MgCl2); apparent Kd from the signal at the end of association against concentration, one-site fit; three repeats with mean (X) and SD
[2] = target: 6×His-ZapC K94D (Escherichia coli) (UniProt P75862); assay: as above

Kd [1]: 2.97 µM, 2.55 µM, 3.04 µM
Kd ([1]; mean of three experiments): 2.86 µM
Kd [2]: 2.14 µM, 1.74 µM, 2.1 µM
Kd ([2]; mean of three experiments): 1.99 µM
Substance: FtsZ (untagged, wild type) (from UniProt P0A9A6 1-383) (natural protein)
